The values below come from the BET-seq Pho4 binding data (Le et al. 2018).

The other results are listed elsewhere or left out. Values were computed here from the reads of four pooled replicates and scatter widely.

The target of this experiment is T1, Pho4 (S. cerevisiae) (UniProt P07270).
T1 sequence: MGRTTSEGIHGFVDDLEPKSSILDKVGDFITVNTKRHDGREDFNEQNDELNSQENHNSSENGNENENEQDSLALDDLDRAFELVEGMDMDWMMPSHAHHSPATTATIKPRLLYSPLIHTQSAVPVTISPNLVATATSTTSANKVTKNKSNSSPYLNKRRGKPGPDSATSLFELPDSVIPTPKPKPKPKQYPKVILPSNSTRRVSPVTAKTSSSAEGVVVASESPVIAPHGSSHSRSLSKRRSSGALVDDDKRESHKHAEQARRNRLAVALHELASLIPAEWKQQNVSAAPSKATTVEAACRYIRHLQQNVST
As to the kind of experiment: relative binding free energy (BET-seq); higher = weaker binding. Particulars: reference: library average.
As to TTAATCACGTGTGTGC, the “relative binding free energy” value came to 0.2 kcal/mol.
Next, AGCGTCACGTGGTTGG: 0.02 kcal/mol; TATCGCACGTGGGCGG: -0.19 kcal/mol; TGTGTCACGTGTGTTG: 0.09 kcal/mol.
For the sequence AAGGTCACGTGTTGAA, the “relative binding free energy” value amounted to 0.19 kcal/mol.
On to CTAGGCACGTGATATT, for which the “relative binding free energy” value was -0.04 kcal/mol.
To GGTAGCACGTGCAGTG belongs -0.17 kcal/mol; to AGGGGCACGTGTATAT, -0.02 kcal/mol; to AGGTTCACGTGGCTTG, 0.32 kcal/mol.
Next, TGGCCCACGTGGTGGA: -0.09 kcal/mol; TTAATCACGTGAATAG: 0.3 kcal/mol; ATTGGCACGTGGCCGT: -0.25 kcal/mol.
In the case of GGGGTCACGTGCAGTG, the “relative binding free energy” value came out at 0.18 kcal/mol.
With TGATACACGTGTCTTT, the “relative binding free energy” value turned out to be 0.07 kcal/mol.
For the sequence AGAAGCACGTGGATGG, the “relative binding free energy” value is 0.03 kcal/mol.
Turning to TATCGCACGTGAGTAG, the “relative binding free energy” value was determined as 0.22 kcal/mol.
With GGCTTCACGTGGTTTC, the “relative binding free energy” value was 0.24 kcal/mol.
For CAGTTCACGTGTGTCT, the “relative binding free energy” value stood at 0.29 kcal/mol.
To TGTTGCACGTGAAGGA belongs 0.21 kcal/mol.
Turning to TACAACACGTGGTGGG, the “relative binding free energy” value is -0.14 kcal/mol.
To CTTATCACGTGATAGG belongs 0.22 kcal/mol; to GTGCGCACGTGGCTGA, -0.12 kcal/mol.
Next, GCTGGCACGTGGAGTT: 0.01 kcal/mol; TATGCCACGTGTATGT: -0.09 kcal/mol; AGTAGCACGTGGACGG: -0.05 kcal/mol.
Next, GGAGACACGTGTTTTT: -0.13 kcal/mol; AGCCGCACGTGTTTTG: 0.11 kcal/mol.
ATAAGCACGTGTATTA: the “relative binding free energy” value was -0.14 kcal/mol.
Regarding TTTGGCACGTGGAGAC, the “relative binding free energy” value was -0.09 kcal/mol.
Next, ATTTCCACGTGGGCGG: 0.03 kcal/mol.
In the case of TGGGGCACGTGCATCT, the “relative binding free energy” value was -0.14 kcal/mol.
Take GGGGCCACGTGGCTTT: the “relative binding free energy” value was -0.13 kcal/mol.
To AGATACACGTGTGAGT belongs 0.07 kcal/mol.
On to GATTACACGTGTGTTA, for which the “relative binding free energy” value turned out to be 0.21 kcal/mol.
To GGATGCACGTGGGCGG belongs -0.24 kcal/mol; to TGGATCACGTGTGTGG, 0.21 kcal/mol; to TGTCTCACGTGACGGG, 0.11 kcal/mol.
To GTTAGCACGTGATAGA belongs 0.07 kcal/mol; to AGCTGCACGTGGCGTG, -0.16 kcal/mol.
Next, TGGAGCACGTGGTTCA: -0.08 kcal/mol; GGGTGCACGTGTCCGT: -0.09 kcal/mol.
As for TTTCGCACGTGTGGTA, the “relative binding free energy” value worked out at 0.01 kcal/mol.
For the sequence TTATACACGTGAGGGG, the “relative binding free energy” value is 0.3 kcal/mol.
Next, TGCGTCACGTGGTTAA: 0 kcal/mol; AGGCGCACGTGAGGGT: 0.09 kcal/mol.
Next, GGGTGCACGTGACTGG: 0.11 kcal/mol.
Turning to ATTGTCACGTGGCATG, the “relative binding free energy” value was -0.06 kcal/mol.
As for TATGTCACGTGGTCGG, the “relative binding free energy” value was -0.07 kcal/mol.
As to GAGTACACGTGGGTAA, the “relative binding free energy” value is -0.05 kcal/mol.
On to TTGTTCACGTGTCGAA, for which the “relative binding free energy” value worked out at 0.2 kcal/mol.
To TGGCACACGTGTTTTT belongs 0.19 kcal/mol; to TATTACACGTGGCGTT, 0.03 kcal/mol; to TTCAACACGTGTTGGT, 0.11 kcal/mol.
As for TCCGTCACGTGTCGTG, the “relative binding free energy” value was 0.24 kcal/mol.
CTTTGCACGTGAATTA: the “relative binding free energy” value was determined as 0.25 kcal/mol.
As to AGCGGCACGTGAGTAG, the “relative binding free energy” value was determined as 0.06 kcal/mol.
To CGTTGCACGTGCAGTG belongs -0.05 kcal/mol.
GGTAGCACGTGCGGAT: the “relative binding free energy” value was -0.18 kcal/mol.
Regarding TGCGGCACGTGGGGCG, the “relative binding free energy” value was -0.23 kcal/mol.
Next, TTGTGCACGTGCTTGT: -0.12 kcal/mol; TGGGCCACGTGATAGA: 0.08 kcal/mol.
With GTATTCACGTGGCTGT, the “relative binding free energy” value amounted to 0.36 kcal/mol.
Next, TGGGGCACGTGGGTGC: -0.22 kcal/mol; TTCGGCACGTGAGTGA: 0.19 kcal/mol.
Consider TGTTACACGTGTTTGA, for which the “relative binding free energy” value came out at 0.21 kcal/mol.
To TAATTCACGTGGGTGG belongs 0.24 kcal/mol; to GTGCGCACGTGGTTCG, -0.18 kcal/mol; to GATATCACGTGTGTGT, 0.14 kcal/mol.
Regarding TTCAGCACGTGTGTGT, the “relative binding free energy” value was -0.1 kcal/mol.
With GGGTTCACGTGTCGCG, the “relative binding free energy” value amounted to 0.48 kcal/mol.
To CTTAGCACGTGAGTTA belongs 0.23 kcal/mol.
To CATTTCACGTGATCGT belongs 0.24 kcal/mol; to TGGATCACGTGTGGAT, 0.18 kcal/mol; to CTTAGCACGTGTAGTA, -0.1 kcal/mol.
With TTTCACACGTGGGTTG, the “relative binding free energy” value was -0.01 kcal/mol.
To TTTGTCACGTGGTTGA belongs 0.04 kcal/mol; to ATTTGCACGTGTTTGC, -0.02 kcal/mol.
To CATGGCACGTGATGAG belongs -0.03 kcal/mol; to GGATACACGTGATGAT, 0.24 kcal/mol.
To TTCGACACGTGATGGT belongs 0.13 kcal/mol; to CTATACACGTGTGATT, 0.21 kcal/mol.
As to TTATACACGTGGGAGT, the “relative binding free energy” value came out at 0.05 kcal/mol.
With GATAGCACGTGTAGTG, the “relative binding free energy” value was found to be 0.13 kcal/mol.
Regarding ATTTTCACGTGGGTGA, the “relative binding free energy” value amounted to 0.21 kcal/mol.
Take GATTTCACGTGTGCTT: the “relative binding free energy” value came to 0.32 kcal/mol.
In the case of GTCTGCACGTGGGGTG, the “relative binding free energy” value was -0.18 kcal/mol.
To GTGAGCACGTGGGGTT belongs -0.14 kcal/mol; to GGCCACACGTGTTGGT, 0.18 kcal/mol.
Next, TGGGACACGTGTATCG: -0.16 kcal/mol; GTGACCACGTGGAGTT: -0.01 kcal/mol.
In the case of AAATTCACGTGGTTAT, the “relative binding free energy” value is 0.04 kcal/mol.
To GGCTTCACGTGCGGGA belongs 0.16 kcal/mol; to GTGGTCACGTGACATG, 0.12 kcal/mol; to ATGGGCACGTGACGGT, -0.05 kcal/mol.
As for ATGGCCACGTGTAGGT, the “relative binding free energy” value is -0.14 kcal/mol.
As to AATGACACGTGGATGG, the “relative binding free energy” value was -0.15 kcal/mol.
As for CGGGACACGTGTGAGG, the “relative binding free energy” value is -0.08 kcal/mol.
To GGTTTCACGTGCGGCG belongs 0.34 kcal/mol; to TGGGGCACGTGATTGT, 0.06 kcal/mol.
To GGAGGCACGTGGGGTT belongs -0.23 kcal/mol.
As for TAAATCACGTGTGGAG, the “relative binding free energy” value was 0.15 kcal/mol.
As for CTCTGCACGTGGTGAG, the “relative binding free energy” value was 0.03 kcal/mol.
On to CAAGTCACGTGATTGT, for which the “relative binding free energy” value came out at 0.34 kcal/mol.
On to GGGAACACGTGTGCGT, for which the “relative binding free energy” value was 0.01 kcal/mol.
To ATATGCACGTGAGTGT belongs 0.15 kcal/mol; to GGGTACACGTGATGGG, 0.29 kcal/mol.
Next, ATTGGCACGTGTACTT: -0.05 kcal/mol; TCGTACACGTGGGTTA: -0.17 kcal/mol.
Take TTGACCACGTGGCGGG: the “relative binding free energy” value is -0.08 kcal/mol.
As for TTGATCACGTGGTAGC, the “relative binding free energy” value came out at 0.07 kcal/mol.
For the sequence GTAGTCACGTGCTGAG, the “relative binding free energy” value is 0.11 kcal/mol.
AAATGCACGTGCTGGT: the “relative binding free energy” value was -0.12 kcal/mol.
Next, AACGGCACGTGGGATT: -0.2 kcal/mol; GGCGGCACGTGTTTTG: 0.1 kcal/mol; TATTACACGTGGTTAA: -0.06 kcal/mol.
